Reference: the supplement of paper PMC8728848
The other results are listed elsewhere or left out.

Key:
Test in all cases: glycan array binding signal (z-score within array); higher = stronger binding
Conditions in all cases: glycan notation: IUPAC condensed, linker removed
[1] = target: Gal(a1-3)Gal(b1-4)GlcNAc(b1-2)Man
Method in brief: (§1)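 Glycan array data were curated from 3228 arrays in the Consortium for Functional Glycomics database and kept only where the protein sequence was available. Glycan names were converted to IUPAC-condensed notation, and columns mapping to the same glycan were averaged. The binding signal is a within-array Z-score, averaged across arrays of the same protein sequence at different concentrations or buffers and across linkers. Negative Z-scores can be read as non-binding.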

[2] = target: Gal(a1-3)Gal(b1-4)GlcNAc(b1-2)Man(a1-3)[Gal(a1-3)Gal(b1-4)GlcNAc(b1-2)Man(a1-6)]Man(b1-4)GlcNAc(b1-4)GlcNAc
Method in brief: as §1

[3] = target: Gal(a1-3)Gal(b1-4)GlcNAc(b1-3)GalNAc
Method in brief: as §1

[4] = target: Gal(a1-3)Gal(b1-4)GlcNAc(b1-6)GalNAc
Method in brief: as §1

[5] = target: Gal(a1-3)Gal(b1-4)[Fuc(a1-3)]GlcNAc
Method in brief: as §1

[6] = target: Gal(a1-3)Gal(b1-4)[Fuc(a1-3)]GlcNAc(b1-2)Man(a1-3)[Gal(a1-3)Gal(b1-4)[Fuc(a1-3)]GlcNAc(b1-2)Man(a1-6)]Man(b1-4)GlcNAc(b1-4)GlcNAc
Method in brief: as §1

Gal(a1-3)GalNAc = target: Gal(a1-3)GalNAc
Method in brief: as §1

[7] = target: Gal(a1-3)[Gal(a1-4)]Gal(b1-4)GlcNAc
Method in brief: as §1

[8] = target: Gal(a1-4)Gal(b1-3)GlcNAc(b1-2)Man(a1-3)[Gal(a1-4)Gal(b1-3)GlcNAc(b1-2)Man(a1-6)]Man(b1-4)GlcNAc(b1-4)GlcNAc
Method in brief: as §1

Gal(a1-4)Gal(b1-4)Glc = target: Gal(a1-4)Gal(b1-4)Glc
Method in brief: as §1

Gal(a1-4)Gal(b1-4)GlcNAc = target: Gal(a1-4)Gal(b1-4)GlcNAc
Method in brief: as §1

[9] = target: Gal(a1-4)Gal(b1-4)GlcNAc(b1-2)Man(a1-3)[Gal(a1-4)Gal(b1-4)GlcNAc(b1-2)Man(a1-6)]Man(b1-4)GlcNAc(b1-4)GlcNAc
Method in brief: as §1

[10] = target: Gal(a1-4)Gal(b1-4)GlcNAc(b1-3)Gal(b1-4)Glc
Method in brief: as §1

Gal(a1-4)GlcNAc = target: Gal(a1-4)GlcNAc
Method in brief: as §1

Gal(a1-6)Glc = target: Gal(a1-6)Glc
Method in brief: as §1

Gal(b1-2)Gal = target: Gal(b1-2)Gal
Method in brief: as §1

Gal(b1-3)Gal = target: Gal(b1-3)Gal
Method in brief: as §1

Gal(b1-3)Gal(b1-4)GlcNAc = target: Gal(b1-3)Gal(b1-4)GlcNAc
Method in brief: as §1

Gal(b1-3)GalNAc = target: Gal(b1-3)GalNAc
Method in brief: as §1

[11] = target: Gal(b1-3)GalNAc(a1-3)[Fuc(a1-2)]Gal(b1-4)Glc
Method in brief: as §1

[12] = target: Gal(b1-3)GalNAc(a1-3)[Fuc(a1-2)]Gal(b1-4)GlcNAc
Method in brief: as §1

Gal(b1-3)GalNAc(b1-3)Gal = target: Gal(b1-3)GalNAc(b1-3)Gal
Method in brief: as §1

[13] = target: Gal(b1-3)GalNAc(b1-3)Gal(a1-4)Gal(b1-4)Glc
Method in brief: as §1

[14] = target: Gal(b1-3)GalNAc(b1-4)Gal(b1-4)Glc
Method in brief: as §1

[15] = target: Gal(b1-3)GalNAc(b1-4)[Neu5Ac(a2-3)]Gal(b1-4)Glc
Method in brief: as §1

Gal(b1-3)GlcNAc = target: Gal(b1-3)GlcNAc
Method in brief: as §1

[16] = target: Gal(b1-3)GlcNAc(a1-3)Gal(b1-4)GlcNAc
Method in brief: as §1

[17] = target: Gal(b1-3)GlcNAc(a1-6)Gal(b1-4)GlcNAc
Method in brief: as §1

Gal(b1-3)GlcNAc(b1-2)Man = target: Gal(b1-3)GlcNAc(b1-2)Man
Method in brief: as §1

[18] = target: Gal(b1-3)GlcNAc(b1-2)Man(a1-3)[Gal(b1-3)GlcNAc(b1-2)Man(a1-6)]Man(b1-4)GlcNAc(b1-4)GlcNAc
Method in brief: as §1

[19] = target: Gal(b1-3)GlcNAc(b1-2)Man(a1-3)[Gal(b1-3)GlcNAc(b1-2)Man(a1-6)]Man(b1-4)GlcNAc(b1-4)[Fuc(a1-6)]GlcNAc
Method in brief: as §1

[20] = target: Gal(b1-3)GlcNAc(b1-2)Man(a1-3)[GlcNAc(b1-4)][Gal(b1-3)GlcNAc(b1-2)Man(a1-6)]Man(b1-4)GlcNAc(b1-4)GlcNAc
Method in brief: as §1

[21] = target: Gal(b1-3)GlcNAc(b1-2)[Gal(b1-3)GlcNAc(b1-6)]Man(a1-6)[Gal(b1-3)GlcNAc(b1-2)Man(a1-3)]Man(b1-4)GlcNAc(b1-4)GlcNAc
Method in brief: as §1

[22] = target: Gal(b1-3)GlcNAc(b1-3)Gal(b1-3)GlcNAc
Method in brief: as §1

[23] = target: Gal(b1-3)GlcNAc(b1-3)Gal(b1-4)Glc
Method in brief: as §1

[24] = target: Gal(b1-3)GlcNAc(b1-3)Gal(b1-4)GlcNAc
Method in brief: as §1

[25] = target: Gal(b1-3)GlcNAc(b1-3)Gal(b1-4)GlcNAc(b1-2)Man(a1-3)[Gal(b1-3)GlcNAc(b1-3)Gal(b1-4)GlcNAc(b1-2)Man(a1-6)]Man(b1-4)GlcNAc(b1-4)GlcNAc
Method in brief: as §1

B1: Clec18C (Homo sapiens) (protein)
chain: MLHPETSPGRGHLLAVLLALLGTAWAEVWPPQLQEQAPMAGALNRKESFLLLSLHNRLRSWVQPPAADMRRLDWSDSLAQLAQARAALCGTPTPSLASGLWRTLQVGWNMQLLPAGLVSFVEVVSLWFAEGQRYSHAAGECARNATCTHYTQLVWATSSQLGCGRHLCSAGQAAIEAFVCAYSPRGNWEVNGKTIVPYKKGAWCSLCTASVSGCFKAWDHAGGLCEVPRNPCRMSCQNHGRLNISTCHCHCPPGYTGRYCQVRCSLQCVHGRLREEECSCVCDIGYGGAQCATKVHFPFHTCDLRIDGDCFMVSSEADTYYRARMKCQRKGGVLAQIKSQKVQDILAFYLGRLETTNEVIDSDFETRNFWIGLTYKTAKDSFRWATGEHQAFTSFAFGQPDNHGFGNCVELQASAAFNWNNQRCKTRNRYICQFAQEHISRWGPGS
[1]
  glycan array binding signal (z-score): -0.41
[2]
  glycan array binding signal (z-score): -0.261
[3]
  glycan array binding signal (z-score): -0.365
[4]
  glycan array binding signal (z-score): -0.459
[5]
  glycan array binding signal (z-score): 1.67
[6]
  glycan array binding signal (z-score): 0.188
Gal(a1-3)GalNAc
  glycan array binding signal (z-score): -0.161
[7]
  glycan array binding signal (z-score): -0.42
[8]
  glycan array binding signal (z-score): -0.306
Gal(a1-4)Gal(b1-4)Glc
  glycan array binding signal (z-score): 0.762
Gal(a1-4)Gal(b1-4)GlcNAc
  glycan array binding signal (z-score): 1.24
[9]
  glycan array binding signal (z-score): 0.282
[10]
  glycan array binding signal (z-score): -0.492
Gal(a1-4)GlcNAc
  glycan array binding signal (z-score): -0.3
Gal(a1-6)Glc
  glycan array binding signal (z-score): -0.605
Gal(b1-2)Gal
  glycan array binding signal (z-score): 2.01
Gal(b1-3)Gal
  glycan array binding signal (z-score): -0.247
Gal(b1-3)Gal(b1-4)GlcNAc
  glycan array binding signal (z-score): 1.45
Gal(b1-3)GalNAc
  glycan array binding signal (z-score): -0.46
[11]
  glycan array binding signal (z-score): -0.454
[12]
  glycan array binding signal (z-score): -0.231
Gal(b1-3)GalNAc(b1-3)Gal
  glycan array binding signal (z-score): -0.58
[13]
  glycan array binding signal (z-score): 0.537
[14]
  glycan array binding signal (z-score): -0.216
[15]
  glycan array binding signal (z-score): 0.031
Gal(b1-3)GlcNAc
  glycan array binding signal (z-score): -0.159
[16]
  glycan array binding signal (z-score): -0.264
[17]
  glycan array binding signal (z-score): 0.983
Gal(b1-3)GlcNAc(b1-2)Man
  glycan array binding signal (z-score): -0.181
[18]
  glycan array binding signal (z-score): 1.5
[19]
  glycan array binding signal (z-score): 0.158
[20]
  glycan array binding signal (z-score): -0.03
[21]
  glycan array binding signal (z-score): -0.547
[22]
  glycan array binding signal (z-score): -0.443
[23]
  glycan array binding signal (z-score): -0.457
[24]
  glycan array binding signal (z-score): -0.118
[25]
  glycan array binding signal (z-score): -0.036
